Results on one molecule are retold here after patent US20100196361A1, “Method of inhibition of vascular development using an antibody” (DYAX CORP., priority 2003, published 2010).

The nature of data set [1]: ELISA of antibody serum levels in tumor-bearing mice. It counts as in vivo, mouse. The note with it: ocular bleeds after three every other day dosings and terminal bleeds, average. The source says:
Analyses included gamma counting of all samples. […] DX-2240, due to its interaction with Tie1 on the surface of endothelial cells, may accumulate in areas of high vascularization such as the lung. Therefore, multiple administrations of DX-2240 may be required to achieve an effective steady-state level of this antibody in the serum of mice. ELISA on ocular bleeds following three every other day dosings, as well as terminal bleed samples from tumor-bearing mice treated with DX-2220, were performed.
(In general: An ELISA detects its analyte on a solid surface through an enzyme-linked reagent.)

The test system of data set [2] is human LNM35 lung cancer xenografts. Kind of data set: LNM35 lung cancer xenograft in nude mice. It counts as in vivo, mouse. As for the experimental part: The effect of DX-2220 on tumor growth in mice bearing human LNM35 lung cancer xenografts was tested. For these studies, LNM35 cells were injected subcutaneously in the lateral thorax of athymic nude mice. Four days after tumor cell implantation, treatment was initiated with DX-2220 or A2-SV (negative control antibody) at a dosage of 20 mg/kg, three times a week. Tumor sizes were measured at day 6, 8 and 10 post antibody treatment.
(§1) In addition to the in vivo studies presented above, four additional mouse xenografts studies were performed. These studies were conducted either according to the protocols used in the SW-480 or LNM35 study.
The anti-Tie1 antibody was also evaluated for its effect on implanted tumors. Tumor cells were injected subcutaneously into the abdominal region of mice (Balb/C nu/nu female mice, 5-6 weeks old). The following tumor cells were tested: a lung carcinoma (mouse syngeneic Lewis lung carcinoma (LLC)); human lung carcinoma LNM35; an aggressive human colon carcinoma clone (SW480R). Treatments with anti-Tie1 antibody were initiated 4-6 days post-implantation. The anti-Tie1 antibodies or a control antibody (the A2 anti-streptavidin antibody) were administered intraperitoneally at 20 mg/kg every second day. Tumor volume was measured every second day and calculated as 0.5×height×width×depth.

Data set [3] relates to Colo205 (human colorectal cancer). Kind of data set: Colo205 xenograft in mice. The settings on record: mouse, in vivo. As for the experimental part:
as §1

In another data set the target is T1, Tie1 (Homo sapiens, UniProt P35590).
T1 sequence (P35590 22-1138): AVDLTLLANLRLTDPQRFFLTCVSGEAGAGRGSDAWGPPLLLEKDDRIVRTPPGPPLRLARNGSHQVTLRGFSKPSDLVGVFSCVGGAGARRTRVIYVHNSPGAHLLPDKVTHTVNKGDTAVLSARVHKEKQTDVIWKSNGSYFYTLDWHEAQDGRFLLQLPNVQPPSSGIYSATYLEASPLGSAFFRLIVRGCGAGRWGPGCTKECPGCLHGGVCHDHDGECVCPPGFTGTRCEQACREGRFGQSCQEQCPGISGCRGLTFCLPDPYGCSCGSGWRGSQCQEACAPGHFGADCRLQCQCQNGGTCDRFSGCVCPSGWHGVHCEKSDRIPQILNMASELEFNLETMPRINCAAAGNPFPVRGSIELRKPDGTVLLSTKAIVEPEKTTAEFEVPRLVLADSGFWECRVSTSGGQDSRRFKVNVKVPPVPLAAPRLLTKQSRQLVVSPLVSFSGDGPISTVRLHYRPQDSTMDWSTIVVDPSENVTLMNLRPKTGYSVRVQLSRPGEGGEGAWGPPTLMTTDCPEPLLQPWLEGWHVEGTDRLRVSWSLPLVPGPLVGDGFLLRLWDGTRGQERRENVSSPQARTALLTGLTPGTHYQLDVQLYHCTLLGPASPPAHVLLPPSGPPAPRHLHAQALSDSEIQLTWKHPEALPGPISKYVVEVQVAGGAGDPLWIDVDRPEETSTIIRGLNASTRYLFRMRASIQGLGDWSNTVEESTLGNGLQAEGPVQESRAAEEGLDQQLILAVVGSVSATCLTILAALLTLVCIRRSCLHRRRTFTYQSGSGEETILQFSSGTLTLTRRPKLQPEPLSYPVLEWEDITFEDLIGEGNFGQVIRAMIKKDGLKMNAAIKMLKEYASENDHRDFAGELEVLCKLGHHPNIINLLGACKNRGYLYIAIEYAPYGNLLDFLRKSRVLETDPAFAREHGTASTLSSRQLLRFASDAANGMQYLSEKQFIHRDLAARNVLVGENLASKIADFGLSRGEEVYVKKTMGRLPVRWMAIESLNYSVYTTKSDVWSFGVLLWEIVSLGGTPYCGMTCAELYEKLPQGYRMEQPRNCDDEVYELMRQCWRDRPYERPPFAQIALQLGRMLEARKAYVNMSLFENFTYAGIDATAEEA
The data set can be described thus: Immunohistochemical analysis of normal human tissues. It counts as binding. Further details: an expression vector containing a V5-tagged full length Tie1 cDNA; expressed in transfected cells; host or cells: COS1. The settings on record: biotinylated antibody 20 μg/ml. As for the experimental part: A series of immunohistochemical analyses on a series of non-malignant normal human tissues to assess potential areas of immunoreactivity of the E3 anti-Tie1 antibody was performed. Antibody titration experiments were conducted on both cryostat and paraformaldehyde fixed sections of select normal human tissues with biotinylated DX-2220 and an IgG isotype control antibody to determine the preferred tissue preservation conditions as well as optimal concentration of the antibody that would result in minimal background and maximal detection of signal. A concentration of 20 μg/ml for the primary antibody was selected for the study with biotinylated DX-2220 and the biotinylated IgG isotype control antibody used as the primary antibodies, and the principal detection system consisting of Streptavidin HRP with DAB as the chromagen. Tissues also were stained with the positive control antibodies (anti-CD31 and anti-vimentin) to ensure that the tissue antigens were preserved and accessible for immunohistochemical analysis. Only tissues that were positive for CD31 and vimentin staining were selected for the remainder of the study. The negative control consisted of performing the entire immunohistochemical procedure on adjacent sections in the absence of primary antibody. Slides were imaged with a DVC 1310C digital camera coupled to a Nikon microscope.

B1: DX-2220: full length, IgG1, germlined human anti-Tie1 antibody E3b; LC SEQ ID NO:700, HC SEQ ID NO:701 (antibody)
heavy: EVQLLESGGGLVQPGGSLRLSCAASGFTFSMYGMVWVRQAPGKGLEWVSVISPSGGNTGYADSVKGRFTISRDNSKNTLYLQMNSLRAEDTAVYYCARAPRGYSYGYYYWGQGTLVTVSS[left out - human IgG1 constant region]
light: DIQMTQSPSSLSASVGDRVTITCRASQGIGHYLAWYQQKPGKVPKLLIYTASTLQSGVPSRFSGSGSGTDFTLTISSLQPEDVATYYCQQFNSYPHTFGQGTRLEIKRTVAAPSVFIFPPSDEQLKSGTASVVCLLNNFYPREAKVQWKVDNALQSGNSQESVTEQDSKDSTYSLSSTLTLSKADYEKHKVYACEVTHQGLSSPVTKSFNRGEC
modifications: Antibody
In the case of B1, in data set [1], the “levels in the serum” value worked out at 500 µg/mL. Besides, the body weight result in data set [2] (20 mg/kg three times a week) is listed as “did not exhibit any significant loss in body weight”. Moreover, the “slowing of tumor progression” value in data set [2] (20 mg/kg three times a week from day 4, versus A2-SV, p=0.037) is ~60%. Also, in data set [2] (LNM35 #3, day 21 after start of treatment), the “inhibition of tumor progression” value is 30% inhibition @ day 21. The “effect on tumor progression” value in data set [3] is reported as “no effect”. Moreover, in the data set with Tie1, the “staining of HMEC positive control cell line” value is “moderate membrane staining within the HMEC cell line”; the “staining of colon cancer positive control samples” value is “staining of macrophages, some carcinoma cells, and endothelial cells”; the “staining of normal tissues after subtraction of IgG isotype control background” value was “the majority of tissues were negative”; the “staining within normal tissues” value is “faint to moderate staining of macrophages, microglia in the brain, squamous epithelium of the cervix, faint staining of skeletal muscle, islets of Langerhans, and placental endothelium”.
